The text below walks through data of PubChem BioAssay AID1346428 (National Center for Advancing Translational Sciences (NCATS), 2018).

Out of some 48,000 compounds screened, about 1,200 (2.5%) were called active. Another 2% or so got no clear call; they are omitted.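 How the source made its calls: active means activation of at least 60% and not above a set upper limit (about 1 call in 100 departs from these limits); inconclusive means activation of 40% to 60%, or above that upper limit; inactive means activation under 40%.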 The list shows a part of the results.

In the assay the target is Probable G-protein coupled receptor 32 (Homo sapiens) (UniProt O75388). Put plainly: qHTS for Agonists of Human Resolvin D1 Receptor DRV1. Further: 0% is about no effect. To be noted: CHO-K1 GPR32 beta-arrestin PathHunter luminescence, 90 min; at 76.9 µM; active compounds read high; zero percent set by DMSO-only wells. The gist of the method: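 GPR32 activation in stably transfected CHO-K1 cells, detected as beta-arrestin recruitment by enzyme-fragment complementation. Compound exposure: 90 min, 37 °C.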
UniProt O75388, sequence (O75388 whole entry, looked up, the tested form may be a part): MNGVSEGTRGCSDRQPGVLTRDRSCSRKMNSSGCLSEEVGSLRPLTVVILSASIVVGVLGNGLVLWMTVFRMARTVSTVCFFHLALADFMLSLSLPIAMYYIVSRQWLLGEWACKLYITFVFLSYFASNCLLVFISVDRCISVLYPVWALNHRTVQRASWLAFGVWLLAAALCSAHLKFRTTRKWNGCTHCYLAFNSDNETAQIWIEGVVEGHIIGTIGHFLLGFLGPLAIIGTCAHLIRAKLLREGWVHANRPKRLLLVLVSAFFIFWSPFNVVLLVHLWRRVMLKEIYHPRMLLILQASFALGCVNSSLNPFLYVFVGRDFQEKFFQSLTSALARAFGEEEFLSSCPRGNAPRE
On the technique in general: In qHTS, concentration-response curves come from the screen itself.
`O=C(CCCN1CCN(c2ccc(F)cc2)CC1)NC1c2ccccc2CSc2ccccc21` (stereo not drawn): the activation was inactive: 39.2%.
Under `Cc1ccc(NC(=O)Cn2c(=O)n(Cc3ccco3)c(=O)c3sc4ccccc4c32)cc1C` stands inactive: -15%.
Under `COc1ccc2c(c1)sc1ncc(C(=O)NCc3ccc(OC(C)C)cc3)c(=O)n12` stands inactive: -1.93%; under `O=C(NCCc1ccc(Cl)cc1)c1cnc2sc(N3CCCCC3)nn2c1=O`, inactive: -2.96%; under `COc1ccc(-c2cc(C(F)(F)F)nc(SCCC(=O)Nc3cc(C)ccc3O)n2)cc1`, inactive: 25.4%.
The result for `Oc1c(C(c2ccc(Cl)cc2)N2CCC3(CC2)OCCO3)sc2nc(-c3ccco3)nn12` (stereo not drawn) reads inactive: 3.97%; that for `CCOc1ccccc1NC(=O)CSc1nc2cc(OC)c(OC)cc2c2nc(-c3ccccc3)nn12`, inactive: 1.29%.
On to `CCn1c(=O)c(C(=O)Nc2ccc(C(C)=O)cc2)nc2ccccc21`, for which the activation was inactive: 34.7%.
The result for `COc1cc(NC(=O)c2cccc3c2C(=O)N(C2CCCCC2)C3)cc(OC)c1` reads inactive: 11.3%; that for `O=C(Cn1c(=O)oc2ccccc21)Nc1ccc(C(=O)O)cc1`, inactive: -13.2%; that for `CCOc1ccccc1NC(=O)n1ncc2cc(Cl)ccc21`, inactive: 8.09%.
Turning to `Cc1ccc(NC(=O)/C(C#N)=C/c2cc(C)n(-c3ccc(Br)cc3)c2C)cc1C`, the activation was active: 63%.
On to `Cc1ccc(CCNC(=O)c2ccc(CS(=O)(=O)c3ccc(Cl)cc3)o2)cc1`, for which the activation was inactive: 25.7%.
As to `COCCNC(=O)CCCN1C(=O)CCn2nc(-c3cccn3C)cc21`, the activation was inactive: -22%.
As for `COc1ccc2c(c1)CCC1C2CC[C@@]2(C)C1CC[C@@H]2NCCCCCCN1C(=O)C=CC1=O` (stereo partly drawn), the activation was inactive: -3.67%.
The result for `COc1ccc(CCn2c(=O)[nH]c3cc(C(=O)N4CCN(c5ccccc5)CC4)ccc3c2=O)cc1OC` reads inactive: -6.24%; that for `CC1=C(c2ccc(C)cc2)S(=O)(=O)N(Cc2ccc(C(=O)Nc3ccccc3C)cc2)C1=O`, inactive: -12%.
As to `Cc1cc(O)c(C(c2ccc(Cl)cc2)N2CCN(c3ccccc3)CC2)c(=O)n1Cc1ccco1` (stereo not drawn), the activation is inactive: -21%.
In the case of `Cc1cc2ccccc2n1CCNC(=O)c1ccc(F)cc1`, the activation is inactive: 27.3%.
The result for `CCN1C(=O)C2(c3ccccc31)c1c(oc3ccc(C)cc3c1=O)C(=O)N2CCCOC(C)C` (stereo not drawn) reads inactive: -25.2%.
As for `COc1ccc(NC(=O)Cn2c(=O)oc3cc(S(=O)(=O)N4CCCCC4C)ccc32)cc1` (stereo not drawn), the activation was inactive: 22.6%.
In the case of `COC(=O)c1ccccc1NC(=O)CCCN1C(=O)C(c2ccccc2)Oc2cccnc21` (stereo not drawn), the activation was inactive: 8.72%.
Turning to `Cc1oc(-c2ccc(C(=O)NC(C)c3ccccc3)cc2)nc1CS(=O)(=O)c1ccccc1` (stereo not drawn), the activation is inactive: -0.826%.
For the molecule `O=C(c1ccccc1F)N1CCC(c2nc3c(nnn3Cc3cccc(F)c3)c(=O)[nH]2)CC1`, the activation was inactive: -0.752%.
Take `COc1cc(OC)c(NC(=O)c2cc(C(C)=O)n3ccccc23)cc1Cl`: the activation was inactive: 10.4%.
Turning to `COc1ccc(OCC(=O)N(Cc2cccc(OC)c2)C2CCS(=O)(=O)C2)cc1` (stereo not drawn), the activation is inactive: -6.92%.
The result for `Cc1ccc(Nc2ncnc3c2cnn3-c2ccc(C)cc2)cc1` reads inactive: -3.24%; that for `COCCNC(=O)CCCn1c(=O)[nH]c2ccsc2c1=O`, inactive: -26.4%; that for `Brc1ccc(-c2noc(-c3ccccc3)n2)o1`, inactive: 12.8%.
With `COc1ccc(C)cc1NS(=O)(=O)c1c(C)nc2sc(C)cn2c1=O`, the activation was inactive: -15.2%.
Consider `CCOc1ccccc1NC(=O)CSc1ccc2nnc(CCNS(=O)(=O)c3ccccc3)n2n1`, for which the activation is inactive: -14.6%.
Consider `COc1ccc(NC(=O)c2sc3nc(C)c(C(=O)Nc4ccc(C)cc4C)c(-c4ccccc4Cl)c3c2N)cc1`, for which the activation was inactive: -6.08%.
`Cc1nn(Cc2noc(C(=O)NCc3cccc(F)c3)n2)c(C)c1Br`: the activation is active: 73.1%.
Under `COc1ccc(-n2cc(C(=O)N(C)c3cc(C)ccc3OC)c3ccccc3c2=O)cc1` stands inactive: -28.9%.
In the case of `CSCCC(NS(=O)(=O)c1ccc2c(c1)oc(=O)n2C)C(=O)NCc1ccc(F)cc1` (stereo not drawn), the activation is inactive: -8.78%.
`COc1ccccc1NC(=O)C1=C(C)Nc2nc(SCC(=O)c3ccc(C)cc3)nn2C1c1ccccc1C` (stereo not drawn): the activation is inactive: 7.41%.
Consider `Cc1ccc(Cl)cc1N(C)C(=O)c1noc2c1CCCCC2`, for which the activation is inactive: -19.1%.
As to `CN(C)CCNC(=O)CCCn1c(=O)c2cccn2c2ccccc21`, the activation was inactive: -0.348%.
As to `CN(C)CCN(Cc1ccccc1)S(=O)(=O)c1ccc(-c2cc(C(F)(F)F)on2)s1`, the activation is inactive: 19.7%.
Under `CCOc1ccc(NS(=O)(=O)c2ccc3[nH]cc(C(=O)NCCOC)c(=O)c3c2)cc1` stands inactive: 21.8%; under `COc1ccc(-c2oc3ncn4nc(COc5ccc(C)cc5)nc4c3c2-c2ccc(OC)cc2)cc1`, inactive: -8.76%; under `CCOC(=O)c1c(NC(=O)CCCOc2ccc(Cl)cc2)sc2c1CCC2`, inactive: -5.34%.
As to `COc1ccc(OC)c(-c2noc(N3CCN(c4ccc(C(C)=O)cc4)CC3)n2)c1`, the activation was inactive: 20.7%.
As for `COc1ccc(CNC(=O)c2ccc(NC(=O)N3CCSc4ncccc43)cc2)cc1OC`, the activation is inactive: -8.08%.
Regarding `O=C(NCCc1csc2nc(-c3ccccc3F)nn12)c1ccccc1C(F)(F)F`, the activation was inactive: 25.9%.
The result for `COc1cccc(CN(C(=O)c2ccc(C(C)(C)C)cc2)C2CCS(=O)(=O)C2)c1` (stereo not drawn) reads inactive: -16%; that for `CCOC(=O)Cn1c(=O)oc2cc(S(=O)(=O)N3CCN(c4ccccc4OC)CC3)ccc21`, inactive: -16.2%.
Under `COCCCNC(=O)c1ccc(Cn2c(=O)c3ccccc3n(Cc3ccccc3C)c2=O)cc1` stands inactive: -8.59%; under `CCOc1ccc(-c2nnc(SCC(=O)Nc3cc(F)ccc3F)o2)cc1`, inactive: 6.45%; under `COc1cccc2c1Oc1nc(-c3ccccc3)nc(SCC(=O)Nc3ccccc3)c1C2`, inactive: 2.17%.
The result for `CCCOc1ccc(C(=O)Nc2ccc3nn(-c4ccc(OC)c(Cl)c4)nc3c2)cc1` reads inactive: 7.51%; that for `Cc1ccccc1NC(=O)c1c(C)oc2ccc(O)c(CN3CCC(C)CC3)c12`, inactive: -0.284%; that for `COc1ccc(NC(=O)c2cnn(-c3ccc(F)cc3F)c2C2CCN(C(=O)OC(C)(C)C)CC2)cc1Cl`, inactive: -22.7%.
For `O=C(C1CCCN(S(=O)(=O)c2cccc3nonc23)C1)N1CCN(c2ccccc2Cl)CC1` (stereo not drawn), the activation was inactive: 1%.
On to `COc1ccc(CCNC(=O)c2ccc3nc(Cc4ccccc4)oc3c2)cc1OC`, for which the activation was inactive: 2.64%.
As to `COc1ccc(N(CC(=O)NCCc2ccccc2)S(=O)(=O)c2ccc(OC)c(OC)c2)cc1`, the activation is inactive: -7.71%.
In the case of `Nc1nonc1-c1nc2ccccc2n1Cc1c(Cl)cccc1Cl`, the activation was inactive: 21.2%.
With `O=C(CCCl)NCc1ccccc1`, the activation is inactive: -15.5%.
Consider `COc1cc(OC)c(NC(=O)C(c2ccccc2)N2Cc3ccccc3C2=O)cc1Cl` (stereo not drawn), for which the activation is inactive: -27.1%.
Turning to `COc1ccc(NC(=O)C2CCN(S(=O)(=O)c3ccc4[nH]c(=O)ccc4c3)CC2)cc1Cl`, the activation is inactive: 15.9%.
Under `CCS(=O)(=O)N1CC(=O)N(c2ccc(Cl)cc2C)C(C)(C(=O)NC2CCCCCC2)C1` (stereo not drawn) stands inactive: 17.2%.
For `CCc1nnc(SCc2cccc(F)c2)c2cc3sc(C)cc3n12`, the activation was inactive: -22.3%.
`CCOc1ccc(N2CC(c3nc4ccccc4n3CCCOc3ccccc3OC)CC2=O)cc1` (stereo not drawn): the activation was inactive: 35.2%.
For `COc1ccc(CCNC(=O)C2(c3cccs3)CCOCC2)cc1`, the activation is inactive: -4.09%.
`O=C(Nc1nonc1-c1ccc(Cl)cc1)c1ccccc1F`: the activation is inactive: 34.4%.
In the case of `CC(C)CN(CCCNC(=O)c1cc(-c2ccc(Br)s2)nc2ccccc12)CC(C)C`, the activation is inactive: -2.03%.
As to `CCOC(=O)c1scc(-c2ccccc2)c1S(=O)(=O)Nc1ccc(N(C)C)cc1`, the activation was inactive: -25.2%.
Under `COc1ccc(N2CC(NC(=O)/C=C\c3ccc4c(c3)OCO4)CC2=O)cc1` (stereo not drawn) stands inactive: -5.59%; under `Cc1nn2c(C)c(C(=O)N3CCN(c4ccccc4F)CC3)cnc2c1-c1ccc(F)cc1`, inactive: 3.29%.
Turning to `Cc1nnc(SCc2cc(=O)n3cccc(C)c3n2)s1`, the activation was inactive: -23.2%.
For `COCCCNC(=O)c1ccc(Cn2c(=O)c3ccccc3n(CC(=O)Nc3c(C)cccc3C)c2=O)cc1`, the activation is inactive: -9.17%.
For the molecule `CCCCCCNc1nc2c(c(=O)n(C)c(=O)n2C)n1Cc1cccc(C)c1`, the activation was inactive: 2.59%.
`CCOc1cc(C(=O)Nc2ccc3nc(Nc4cccc(Cl)c4)cc(C)c3c2)cc(OCC)c1OCC`: the activation was inactive: 27.2%.
On to `COc1cccc(-c2nc(CS(=O)(=O)CC(=O)NCCc3ccc(OC)cc3OC)c(C)o2)c1`, for which the activation was inactive: -26.9%.
`CCCC(CCC)C(=O)Nc1cccc(-c2nc3cccnc3s2)c1C`: the activation is inactive: -11.3%.
As to `Cc1cccc(CCNC(=O)C2CCC(CNS(=O)(=O)c3ccccc3)CC2)c1` (stereo not drawn), the activation is inactive: 8.51%.
In the case of `CCOC(=O)c1ccc(NC(=O)c2cnn(-c3ccc(C)cc3C)c2C2CCN(C(=O)OC(C)(C)C)CC2)cc1`, the activation was inactive: -9.4%.
On to `O=C(NCc1ccccc1Cl)C1CCN(S(=O)(=O)Cc2ccccc2)CC1`, for which the activation is inactive: 13.9%.
In the case of `COc1ccc(Cl)cc1NC(=O)CSC1=Nc2ccccc2C2=NC(CCC(=O)NCc3ccc(F)cc3)C(=O)N12` (stereo not drawn), the activation is inactive: -11.5%.
`Cc1nc2ccn(Cc3ccco3)c(=O)c2cc1C(=O)NCc1ccccc1F`: the activation is inactive: -2.62%.
The result for `CNS(=O)(=O)Cc1ccc2[nH]cc(CCN(C)C)c2c1` reads inactive: 3.33%.
Take `N#Cc1ccccc1Cn1c(=O)n(CCCC(=O)NCc2ccccc2Cl)c(=O)c2ccccc21`: the activation is inactive: -4.13%.
Take `CC1=C(C(=O)Nc2cccnc2)C(c2ccccc2)n2nc(SCc3ccccc3)nc2N1` (stereo not drawn): the activation is inactive: -6.29%.
